This note sets out measurements from PubChem BioAssay (NCI).

Several values for one entry are separate records, joined by “and”; a condition that tells them apart may be missing. Equal values may be shown once.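 Cells were grown in 96-well plates and exposed to each compound for 48 hours at five concentrations; endpoints were interpolated linearly between bracketing concentrations, or set to the highest concentration if not reached. GI50 = concentration required for 50% inhibition of growth. TGI: concentration producing complete growth inhibition.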

For the assay, the system named is NCI-H322M lung. In words: NCI-60 cell line screen, 48 h.
`C=C(C=O)[C@@H]1CC[C@]2(C(=O)O)CC[C@]3(C)C(CC[C@@H]4[C@@](C)(CCC#N)[C@H](C(=C)C=O)CC[C@]43C)[C@@H]12` (stereo partly drawn): the GI50 was 11.2 µM and the TGI amounted to 24.9 µM.

`O=C(NNc1nc2cc(F)cc(F)c2n2cccc12)c1cccnn1`: the GI50 is 0.244 µM and 0.183 µM; the TGI is 30 µM and 35.4 µM.

Regarding `CC(=O)O[C@@H]1C(=O)N(c2cnccn2)[C@H]1c1ccccc1[N+](=O)[O-]`, the GI50 was 0.658 µM and the TGI is more than 100 µM.

Turning to `O=C(Nc1cccc(Cl)c1)Nc1nc2ccc([N+](=O)[O-])cc2o1`, the GI50 was 3.42 µM and the TGI was more than 100 µM.
